Data as given in article PMC7819943, “Rice protein-binding microarrays: a tool to detect cis-acting elements near promoter regions in rice”.
The list shows a part of the results.

Molecular target: T1, OsWOX13 (Oryza sativa, UniProt Q5QMM3 1-267)
T1 sequence: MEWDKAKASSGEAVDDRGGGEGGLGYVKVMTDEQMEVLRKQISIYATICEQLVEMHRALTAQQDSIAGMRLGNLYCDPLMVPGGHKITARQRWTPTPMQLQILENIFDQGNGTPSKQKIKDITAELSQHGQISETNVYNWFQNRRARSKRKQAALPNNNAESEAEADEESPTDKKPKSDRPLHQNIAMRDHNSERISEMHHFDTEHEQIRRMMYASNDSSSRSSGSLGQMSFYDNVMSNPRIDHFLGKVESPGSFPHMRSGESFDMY
Assay: protein-binding microarray (RPBM); PBS, 2% BSA, 51.3 ng/ul salmon testes DNA, 50 uM zinc acetate, 200 nM TF, 25 C, 1 h; high values mean tight binding
Conditions: protein: recombinant; tags: N-terminal polyhistidine and DsRed monomer fusion (pET32a); label: CyDye5-dUTP incorporated in the synthesized complementary strand; 3' TTTTT single-stranded linker to array surface; dsDNA, one strand shown
Summary of the method: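 Polyhistidine-tagged DsRed fusions of transcription factors, joined at the N-terminus, were expressed in E. coli BL21-CodonPlus and isolated on Ni–NTA. They were incubated at 200 nM for 1 h at 25 °C on a custom Agilent array, double-stranded and BSA-blocked, in PBS with 2% BSA, salmon testes DNA and 50 µM zinc acetate. The binding signal is per-feature fluorescence intensity (arbitrary units) read on an Axon 4000B scanner after washing.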

| Sequence | binding signal |
| --- | --- |
| TCTGTAAACTGTCCGGCAATTAGAAATTCCCATCCTTAGCCGGAGTCACCTAGTGCAG | 3220 fluorescence intensity (a.u.) |
| TGTAATTTAGTGTAATGAAAATATAGCATGTCAAGATATTCGGAGTCACCTAGTGCAG | 9040 fluorescence intensity (a.u.) |
| CAAAATAAATTAATCTCATATTAGATATGACATATTTCAGCGGAGTCACCTAGTGCAG | 16400 fluorescence intensity (a.u.) |
| CACAATTAAATCATTTTGATTCCAATTTTGTAGAATGAACCGGAGTCACCTAGTGCAG | 13600 fluorescence intensity (a.u.) |
| ATTATTGAATTGGCTTTTGAACACTTGCAGCAAACACATTCGGAGTCACCTAGTGCAG | 5730 fluorescence intensity (a.u.) |
| AATAAAATAATAATTATATAATTTTAGTAAGATAATTGAACGGAGTCACCTAGTGCAG | 19200 fluorescence intensity (a.u.) |
| TAAAATTTTATCTCTAATGATATCTTAACCGTTTTATAAGCGGAGTCACCTAGTGCAG | 5750 fluorescence intensity (a.u.) |
| TCCCGTGTAAAAGTTGATTGATTATTGTACTATGCTAATGCGGAGTCACCTAGTGCAG | 35400 fluorescence intensity (a.u.) |
| GGCAAATAGTCAATTGTGGGCTGTTAAATTACTGTCGCGACGGAGTCACCTAGTGCAG | 5040 fluorescence intensity (a.u.) |
| TTTAGATTTTCAAACTTAATTTTGAGATATTTTCAATGGACGGAGTCACCTAGTGCAG | 10300 fluorescence intensity (a.u.) |
| TACTTAATTAATCAAATGCTAATCACATTTCTCGTTTTAACGGAGTCACCTAGTGCAG | 29400 fluorescence intensity (a.u.) |
| GTAGCATAATTGTAAATTGTACTTGTTTATGTTCATAATGCGGAGTCACCTAGTGCAG | 6010 fluorescence intensity (a.u.) |
| ATACAGAAATAATTTCAATCTAGCCATCTAGGTACATGTTCGGAGTCACCTAGTGCAG | 11500 fluorescence intensity (a.u.) |
| CATCGATCAATCAGTGAGCAGCGACAGGAGTAGCACGACGCGGAGTCACCTAGTGCAG | 22600 fluorescence intensity (a.u.) |
| TATATGATTTGTGCAATTTAGACCACAATACATAGGGTTACGGAGTCACCTAGTGCAG | 38100 fluorescence intensity (a.u.) |
| ATAATACAAATATTAGCCTCTACATCCAAAATACATGTGACGGAGTCACCTAGTGCAG | 7480 fluorescence intensity (a.u.) |
| CAGTTAACTAAACAATGTGCTATGGTTTCTGTCATTCCGTCGGAGTCACCTAGTGCAG | 3650 fluorescence intensity (a.u.) |
| TTGACTGTAATTATCTAAAGTCTCAAGCACGTACACTATGCGGAGTCACCTAGTGCAG | 26300 fluorescence intensity (a.u.) |
| ACCTCTTCATCATATTTAAATCAAAGAAAACGATTTTCTTCGGAGTCACCTAGTGCAG | 4320 fluorescence intensity (a.u.) |
| CAACGCATTGAATGAATCAATCAATCAACTCATCAAATCTCGGAGTCACCTAGTGCAG | 33400 fluorescence intensity (a.u.) |
| GCGTGGAGTGTCAATTAGTGGTTATTGGTGGTCTAAGGAGCGGAGTCACCTAGTGCAG | 17100 fluorescence intensity (a.u.) |

| Sequence | binding signal |
| --- | --- |
| ATTTAATTGCAACGAATTTAATGGTGTAATCGGATCATGACGGAGTCACCTAGTGCAG | 31000 fluorescence intensity (a.u.) |
| ATTTCTTTCTTTAATTGCCAGCCCACCATCTCTCCTTCACCGGAGTCACCTAGTGCAG | 5440 fluorescence intensity (a.u.) |
| GTCTCTTTAATTGTGTGTTAGAAAGGCACTTACATCACATCGGAGTCACCTAGTGCAG | 7050 fluorescence intensity (a.u.) |
| GTTGACATGAAGTTTTATTCAAAAGGCTCCATATTTCCATCGGAGTCACCTAGTGCAG | 3680 fluorescence intensity (a.u.) |
| TCAATTTAATTATGCGAGATATAAGCATGTGACTGTCATACGGAGTCACCTAGTGCAG | 7890 fluorescence intensity (a.u.) |
| TAAGTAATTGATTGGTAGCCAGCTTCTAACTTCTAGCTTACGGAGTCACCTAGTGCAG | 63600 fluorescence intensity (a.u.) |
| CATGCATCTCTGCAAGTTAATTGGTTGCATTCTTCTTGTACGGAGTCACCTAGTGCAG | 3380 fluorescence intensity (a.u.) |
| TCACAATCAGTTGATTACTAGCCACAACTTTCAATCCTAACGGAGTCACCTAGTGCAG | 12700 fluorescence intensity (a.u.) |
| AAATTGATTGGCTGGTGGCCATAGAAGGAGAACGAAAATACGGAGTCACCTAGTGCAG | 21800 fluorescence intensity (a.u.) |
| CTCAGCCTGATTAATCGGAGATAATGAGTCTACGAATTTGCGGAGTCACCTAGTGCAG | 9790 fluorescence intensity (a.u.) |
| CCATCTCAATTATAACTAAACCCAACAAGCTGTGCCTAGCCGGAGTCACCTAGTGCAG | 4560 fluorescence intensity (a.u.) |
| TCACAACTTAACTGGCTCTTCTATTTATTTTCCTCACATTCGGAGTCACCTAGTGCAG | 3880 fluorescence intensity (a.u.) |
| CAGAAAATAAACTAACAGTCAGACTCTTAGCTATTTTCAGCGGAGTCACCTAGTGCAG | 7500 fluorescence intensity (a.u.) |
| CTATAAATAATTCTCGTTGATTAGCCTTGGCGGCCAAGTACGGAGTCACCTAGTGCAG | 9520 fluorescence intensity (a.u.) |
| GTTTAGTACTAATTGGAGTAGTATTTTGTTAGTGTAAACCCGGAGTCACCTAGTGCAG | 9150 fluorescence intensity (a.u.) |
| CGCCATACTAGTTAATTTGAATTTGAAAGCTGAGTGGAGGCGGAGTCACCTAGTGCAG | 7190 fluorescence intensity (a.u.) |
| ATTGATTAAACTATGTCACTCACTACTCACTGCTAATAGGCGGAGTCACCTAGTGCAG | 41500 fluorescence intensity (a.u.) |
| CTTTGTTAACTTTTGACCTAATTATTCATTTTATTTAAAACGGAGTCACCTAGTGCAG | 4600 fluorescence intensity (a.u.) |
| AAACTATAAATTAAAGAAGATTAGTTTTAAAGACTGTGCTCGGAGTCACCTAGTGCAG | 10700 fluorescence intensity (a.u.) |
| TTAATCCTAATTAATCCGTCATTAGTAAATGTTTACTATACGGAGTCACCTAGTGCAG | 8330 fluorescence intensity (a.u.) |
| TGAAACATTATAAGTAAATTAGGTGAAACATCTTTTGTAGCGGAGTCACCTAGTGCAG | 3780 fluorescence intensity (a.u.) |
